Our source for the binding values is PMC4682058.

The chains behind the UniProt entries cited, without tags or fusion partners.
UniProt Q5SW79: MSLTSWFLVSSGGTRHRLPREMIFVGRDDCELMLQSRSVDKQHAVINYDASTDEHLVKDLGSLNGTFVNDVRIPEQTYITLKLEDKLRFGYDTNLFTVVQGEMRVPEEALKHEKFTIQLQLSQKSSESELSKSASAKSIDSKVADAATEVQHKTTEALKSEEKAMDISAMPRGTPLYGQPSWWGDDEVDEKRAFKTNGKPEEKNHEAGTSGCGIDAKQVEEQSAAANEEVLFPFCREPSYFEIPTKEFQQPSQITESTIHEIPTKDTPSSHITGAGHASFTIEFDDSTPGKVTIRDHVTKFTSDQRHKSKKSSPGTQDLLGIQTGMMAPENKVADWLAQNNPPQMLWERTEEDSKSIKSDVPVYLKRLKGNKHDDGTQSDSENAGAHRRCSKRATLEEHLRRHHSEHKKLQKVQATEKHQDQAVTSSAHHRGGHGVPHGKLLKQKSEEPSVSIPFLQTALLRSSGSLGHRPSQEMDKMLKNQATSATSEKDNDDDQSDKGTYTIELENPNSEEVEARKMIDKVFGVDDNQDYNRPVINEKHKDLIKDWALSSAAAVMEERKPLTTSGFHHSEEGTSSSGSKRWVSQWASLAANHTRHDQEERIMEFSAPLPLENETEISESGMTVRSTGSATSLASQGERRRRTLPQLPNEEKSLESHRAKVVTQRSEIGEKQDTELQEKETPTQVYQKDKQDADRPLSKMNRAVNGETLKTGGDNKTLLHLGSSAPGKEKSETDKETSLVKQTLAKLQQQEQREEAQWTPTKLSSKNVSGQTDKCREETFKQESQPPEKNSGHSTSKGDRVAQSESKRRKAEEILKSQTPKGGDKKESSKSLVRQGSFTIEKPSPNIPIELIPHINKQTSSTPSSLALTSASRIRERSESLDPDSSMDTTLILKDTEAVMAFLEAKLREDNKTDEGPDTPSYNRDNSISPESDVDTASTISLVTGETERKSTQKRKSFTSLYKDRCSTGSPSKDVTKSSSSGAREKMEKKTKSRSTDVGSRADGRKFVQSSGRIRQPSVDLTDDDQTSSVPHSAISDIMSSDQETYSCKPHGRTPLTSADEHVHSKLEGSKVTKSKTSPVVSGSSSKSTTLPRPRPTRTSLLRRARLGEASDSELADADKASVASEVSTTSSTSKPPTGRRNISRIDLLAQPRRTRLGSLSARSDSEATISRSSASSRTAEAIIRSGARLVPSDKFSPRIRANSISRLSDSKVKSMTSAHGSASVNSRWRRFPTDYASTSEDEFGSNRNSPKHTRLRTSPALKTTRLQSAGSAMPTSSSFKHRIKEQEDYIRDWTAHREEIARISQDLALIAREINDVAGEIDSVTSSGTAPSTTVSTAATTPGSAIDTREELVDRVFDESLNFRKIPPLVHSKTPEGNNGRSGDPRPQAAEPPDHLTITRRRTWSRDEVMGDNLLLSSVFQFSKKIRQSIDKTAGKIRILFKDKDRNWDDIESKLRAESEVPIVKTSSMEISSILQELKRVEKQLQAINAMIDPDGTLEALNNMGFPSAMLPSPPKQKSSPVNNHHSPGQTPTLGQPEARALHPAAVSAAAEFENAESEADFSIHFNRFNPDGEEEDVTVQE
UniProt Q14980: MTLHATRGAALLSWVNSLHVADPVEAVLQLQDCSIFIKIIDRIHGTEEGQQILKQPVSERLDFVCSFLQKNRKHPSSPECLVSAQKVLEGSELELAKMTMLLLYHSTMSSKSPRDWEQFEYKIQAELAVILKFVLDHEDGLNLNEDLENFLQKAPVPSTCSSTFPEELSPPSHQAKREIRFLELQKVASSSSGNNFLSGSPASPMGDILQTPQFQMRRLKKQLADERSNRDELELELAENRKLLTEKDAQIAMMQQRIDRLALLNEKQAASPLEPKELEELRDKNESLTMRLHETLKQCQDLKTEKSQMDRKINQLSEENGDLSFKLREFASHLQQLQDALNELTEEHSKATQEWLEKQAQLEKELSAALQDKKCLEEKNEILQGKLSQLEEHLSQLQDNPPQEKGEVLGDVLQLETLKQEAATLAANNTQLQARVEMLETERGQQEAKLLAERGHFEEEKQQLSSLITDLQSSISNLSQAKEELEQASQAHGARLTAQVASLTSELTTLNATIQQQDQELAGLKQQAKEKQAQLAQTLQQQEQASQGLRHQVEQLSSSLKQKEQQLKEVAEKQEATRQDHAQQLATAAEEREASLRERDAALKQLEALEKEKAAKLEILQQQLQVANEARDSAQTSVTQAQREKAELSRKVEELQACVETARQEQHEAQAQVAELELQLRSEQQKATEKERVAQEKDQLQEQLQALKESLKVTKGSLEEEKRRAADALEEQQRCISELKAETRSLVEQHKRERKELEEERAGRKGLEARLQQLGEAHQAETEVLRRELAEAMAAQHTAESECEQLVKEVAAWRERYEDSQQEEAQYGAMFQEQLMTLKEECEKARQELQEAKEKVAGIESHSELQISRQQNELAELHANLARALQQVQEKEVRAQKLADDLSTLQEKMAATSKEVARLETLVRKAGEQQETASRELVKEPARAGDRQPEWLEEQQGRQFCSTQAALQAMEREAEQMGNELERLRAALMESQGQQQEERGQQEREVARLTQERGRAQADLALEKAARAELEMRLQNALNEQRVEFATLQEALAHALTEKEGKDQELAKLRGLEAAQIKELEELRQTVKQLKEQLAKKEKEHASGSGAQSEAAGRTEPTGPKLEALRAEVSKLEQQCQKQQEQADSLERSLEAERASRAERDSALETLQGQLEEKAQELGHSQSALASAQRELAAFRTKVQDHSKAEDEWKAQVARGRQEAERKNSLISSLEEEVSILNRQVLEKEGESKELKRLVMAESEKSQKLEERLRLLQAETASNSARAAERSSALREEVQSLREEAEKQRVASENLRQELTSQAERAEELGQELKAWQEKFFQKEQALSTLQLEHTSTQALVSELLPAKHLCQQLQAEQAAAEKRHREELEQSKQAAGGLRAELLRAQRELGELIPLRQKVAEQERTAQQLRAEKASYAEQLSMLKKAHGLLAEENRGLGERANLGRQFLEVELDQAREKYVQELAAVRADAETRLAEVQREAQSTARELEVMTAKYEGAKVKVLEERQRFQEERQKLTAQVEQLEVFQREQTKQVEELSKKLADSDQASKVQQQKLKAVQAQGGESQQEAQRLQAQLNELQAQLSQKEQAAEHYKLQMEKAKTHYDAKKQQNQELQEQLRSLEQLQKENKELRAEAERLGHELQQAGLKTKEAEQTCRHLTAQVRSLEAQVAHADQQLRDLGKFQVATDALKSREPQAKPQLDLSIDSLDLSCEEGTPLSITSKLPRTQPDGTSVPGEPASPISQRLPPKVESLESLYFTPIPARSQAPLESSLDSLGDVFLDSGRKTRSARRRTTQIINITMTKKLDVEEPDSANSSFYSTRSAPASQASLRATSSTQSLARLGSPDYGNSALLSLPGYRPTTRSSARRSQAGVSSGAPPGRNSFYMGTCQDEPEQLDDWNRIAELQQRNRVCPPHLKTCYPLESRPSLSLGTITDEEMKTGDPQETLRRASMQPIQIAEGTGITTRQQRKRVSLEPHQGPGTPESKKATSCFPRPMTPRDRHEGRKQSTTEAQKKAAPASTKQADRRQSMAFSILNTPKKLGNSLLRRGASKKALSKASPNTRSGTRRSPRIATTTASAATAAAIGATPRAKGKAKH
UniProt Q8N4N8: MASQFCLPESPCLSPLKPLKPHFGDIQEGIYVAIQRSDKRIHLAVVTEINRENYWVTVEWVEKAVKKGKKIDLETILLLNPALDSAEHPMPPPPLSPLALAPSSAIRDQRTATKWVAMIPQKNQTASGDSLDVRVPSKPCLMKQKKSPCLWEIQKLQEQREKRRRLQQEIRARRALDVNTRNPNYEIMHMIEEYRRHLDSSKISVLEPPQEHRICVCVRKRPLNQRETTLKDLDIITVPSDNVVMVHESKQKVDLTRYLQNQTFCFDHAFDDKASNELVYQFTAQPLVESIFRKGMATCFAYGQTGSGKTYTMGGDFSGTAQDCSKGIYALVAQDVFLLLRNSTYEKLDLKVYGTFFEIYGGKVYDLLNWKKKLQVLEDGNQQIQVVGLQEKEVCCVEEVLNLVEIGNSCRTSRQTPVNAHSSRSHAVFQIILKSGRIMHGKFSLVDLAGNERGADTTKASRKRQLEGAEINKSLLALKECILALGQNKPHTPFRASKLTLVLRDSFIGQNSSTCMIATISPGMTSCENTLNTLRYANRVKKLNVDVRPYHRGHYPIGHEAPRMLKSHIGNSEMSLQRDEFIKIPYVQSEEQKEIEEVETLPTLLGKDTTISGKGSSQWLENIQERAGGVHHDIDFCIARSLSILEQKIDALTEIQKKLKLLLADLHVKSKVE

These are yes or no findings as the source states them, for the method shown. Binding seen in cells or lysates may run through a third protein. Some binding calls cover weakened binding; strength is not graded here.

The target in assay [1] is CEP170, endogenous (human (endogenous in H1650, H460)) (UniProt Q5SW79). Put plainly: co-IP; endogenous proteins; control or TBK1-depleted (shRNA) cells synchronized by double-thymidine block; Kif2b blotted in CEP170 immunoprecipitates; NuMA with dynein.
Assay [2] concerns the target His6-tagged CEP170 (UniProt Q5SW79). Put plainly: pull-down; 8 μl of 35S-methionine-labelled in vitro translated TBK1 on GST-NuMA, GST or His-CEP170 beads; 20 mM Tris-HCl pH 7.5, 0.5% NP-40, 50 mM KCl, 500 mM EDTA, 3 mg/ml BSA, 1 mM DTT, 0.5 mM PMSF; 2 h at 4 °C; autoradiography; only the target purified.
Assay [3] has as its target T1, TANK Binding Kinase 1 (TBK1), endogenous (human (endogenous in H1650, H460)) (UniProt Q9UHD2).
T1 sequence: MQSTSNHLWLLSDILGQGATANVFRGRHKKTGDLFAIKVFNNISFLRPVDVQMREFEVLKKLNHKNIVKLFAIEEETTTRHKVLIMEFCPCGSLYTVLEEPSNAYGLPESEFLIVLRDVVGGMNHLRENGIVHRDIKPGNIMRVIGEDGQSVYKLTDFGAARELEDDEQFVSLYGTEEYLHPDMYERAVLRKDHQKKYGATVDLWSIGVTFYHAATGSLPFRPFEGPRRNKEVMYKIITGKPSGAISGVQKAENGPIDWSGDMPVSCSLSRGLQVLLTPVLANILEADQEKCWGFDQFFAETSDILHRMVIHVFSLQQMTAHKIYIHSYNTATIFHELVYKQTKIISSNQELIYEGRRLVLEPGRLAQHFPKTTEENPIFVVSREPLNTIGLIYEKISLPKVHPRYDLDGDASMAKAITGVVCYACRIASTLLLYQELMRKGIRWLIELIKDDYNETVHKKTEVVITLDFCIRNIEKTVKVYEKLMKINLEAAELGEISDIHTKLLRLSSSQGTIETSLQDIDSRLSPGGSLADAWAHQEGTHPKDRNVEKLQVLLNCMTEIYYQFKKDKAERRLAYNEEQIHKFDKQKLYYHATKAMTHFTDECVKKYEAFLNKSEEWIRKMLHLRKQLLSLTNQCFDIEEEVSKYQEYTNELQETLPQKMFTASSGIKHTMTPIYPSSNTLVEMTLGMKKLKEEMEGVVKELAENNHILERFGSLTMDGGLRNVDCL
As to the kind of experiment: pull-down; competition: 5 μM synthetic CEP peptide added to H460 or H1650 lysate with His-tagged CEP170 beads; TBK1 on the beads by western blot; only the binder purified.

Assay [4] concerns the target NuMA, endogenous (human (endogenous in H1650, H460)) (UniProt Q14980). As to the kind of experiment: co-IP; endogenous proteins; 250 μg of NP-40 lysate and 1 μg antibody; asynchronously growing H1650 cells, and H460 cells released from G1/S (double-thymidine) block.
For assay [5], the target named is CEP170, endogenous (human (endogenous in H1650, H460)) (UniProt Q5SW79). Described as above.
Assay [6] addresses His6-tagged CEP170 (UniProt Q5SW79). Put plainly: pull-down; H460 or H1650 cell lysates incubated with His-tagged CEP170 beads along with 5 μM CEP or scrambled peptide; western blot; only the target purified.
The target in assay [7] is NuMA, endogenous (human (endogenous in H1650, H460)) (UniProt Q14980). Put plainly: proximity ligation; Duolink system on fixed cells; antibodies to TBK1 and CEP170 or NuMA; controls: TBK1 antibody alone or with normal IgG.
Assay [8] addresses CEP170, endogenous (human (endogenous in H1650, H460)) (UniProt Q5SW79). The description is as above.
The target of assay [9] is NuMA, endogenous (human (endogenous in H1650, H460)) (UniProt Q14980). As to the kind of experiment: condition: only cells released from double-thymidine block in the presence of BX795 (0.5 μM); co-IP; endogenous proteins; H460 cells released from double-thymidine block in the presence of BX795.
Assay [10] has as its target CEP170, endogenous (human (endogenous in H1650, H460)) (UniProt Q5SW79). The description is as above.
The target of assay [11] is T1, TANK Binding Kinase 1 (TBK1), endogenous (human (endogenous in H1650, H460)). Put plainly: proximity ligation; competition in cells: 5 μM CEP-Pen for 24 h on H460 cells; TBK1-CEP170 foci read out; only the binder purified.

Consider “Kif2b, endogenous (from UniProt Q8N4N8 1-673)”, for which the binding result in assay [1] is “binds”.

B1: 35S-labelled TBK1 kinase domain (TBK1-1-294) (domain or fragment, UniProt Q9UHD2 1-294)
chain: MQSTSNHLWLLSDILGQGATANVFRGRHKKTGDLFAIKVFNNISFLRPVDVQMREFEVLKKLNHKNIVKLFAIEEETTTRHKVLIMEFCPCGSLYTVLEEPSNAYGLPESEFLIVLRDVVGGMNHLRENGIVHRDIKPGNIMRVIGEDGQSVYKLTDFGAARELEDDEQFVSLYGTEEYLHPDMYERAVLRKDHQKKYGATVDLWSIGVTFYHAATGSLPFRPFEGPRRNKEVMYKIITGKPSGAISGVQKAENGPIDWSGDMPVSCSLSRGLQVLLTPVLANILEADQEKCWG
modifications: 35S-methionine labelled
Consider B1, for which, in the assay with His6-tagged CEP170 [2], the binding entry is listed as “binds”.

B2: CEP peptide (peptide)
peptide: ENAESEADFSIHF
On to B2, for which the binding entry in assay [3] is “binds”.

B3: C terminus of TBK1 (residues 284-729) (domain or fragment, UniProt Q9UHD2 284-729)
chain: ILEADQEKCWGFDQFFAETSDILHRMVIHVFSLQQMTAHKIYIHSYNTATIFHELVYKQTKIISSNQELIYEGRRLVLEPGRLAQHFPKTTEENPIFVVSREPLNTIGLIYEKISLPKVHPRYDLDGDASMAKAITGVVCYACRIASTLLLYQELMRKGIRWLIELIKDDYNETVHKKTEVVITLDFCIRNIEKTVKVYEKLMKINLEAAELGEISDIHTKLLRLSSSQGTIETSLQDIDSRLSPGGSLADAWAHQEGTHPKDRNVEKLQVLLNCMTEIYYQFKKDKAERRLAYNEEQIHKFDKQKLYYHATKAMTHFTDECVKKYEAFLNKSEEWIRKMLHLRKQLLSLTNQCFDIEEEVSKYQEYTNELQETLPQKMFTASSGIKHTMTPIYPSSNTLVEMTLGMKKLKEEMEGVVKELAENNHILERFGSLTMDGGLRNVDCL
modifications: 35S-methionine labelled
Turning to B3, the binding result in the assay with His6-tagged CEP170 [2] is “no binding”.

B4: TANK Binding Kinase 1 (TBK1), endogenous (enzyme, UniProt Q9UHD2 1-729)
chain: T1 sequence
For the molecule B4, the binding entry in assay [4] is on record as “binds”; in [5], “binds”; with His6-tagged CEP170 [6], “binds”; in assay [7], “binds”; in assay [8], “binds”; in assay [9] it was “no binding”. Further, the binding entry in assay [10] is on record as “no binding”.

B5: full length 35S-labelled TBK1 (enzyme, UniProt Q9UHD2 1-729)
chain: T1 sequence
modifications: 35S-methionine labelled
With B5, the binding result with His6-tagged CEP170 [2] is given as “binds”.

B6: CEP170 peptide conjugated to penetratin (CEP-Pen) (peptide)
peptide: ENAESEADFSIHF
Take B6: the binding result in assay [11] is given as “binds”.
